57 compounds from PubChem BioAssay AID1479 (National Center for Advancing Translational Sciences (NCATS), 2009) can be followed below.

The campaign covered roughly 280,000 compounds. About 820 (0.29%) were called active. About 1% were inconclusive and are not listed. Calls come from the whole dose curve; as a rule, active = well fitted curve in either direction with a large enough effect; inconclusive = small, poorly fitted or top-dose-only effect; inactive = flat fitted curve, though single readings scatter. This is a selection; strong and weak results do not stand in their true shares. The source holds several records for some structures; these can differ, active in one and inactive in another.
% is set by controls: 0 for no effect and ±100 for the full control effect; potency is the fitted concentration of half-maximal effect; tags give direction and shape of the fitted curve or compound fluorescence and quenching.

A short description of this assay: Total Fluorescence Counterscreen for Inhibitors of the Interaction of Thyroid Hormone Receptor and Steroid Receptor Coregulator 2. The settings on record: TRb/SRC2 Texas Red total fluorescence interference; series mostly up to 106 µM; fluorescence change, negative = quenching: at the top concentration. An excerpt:
NIH Molecular Libraries Probe Production Network [MLPCN]
NIH Chemical Genomics Center [NCGC]
Assay Provider: R. Kip Guy, St. Jude Children's Research Hospital
Thyroid receptor (TR) regulates many homeostatic processes including basal metabolism, cardiovascular function, body weight, and lipid trafficking. TR modulators are potential therapeutics for obesity and hyperlipidemias but current thyroid analogs have undesirable side effects, particularly cardiac stimulation. To identify inhibitors that specifically prevent the interaction of TR with the steroid receptor […] 2 (SRC2), a fluorescence polarization assay was screened. This assay detects interaction of the ligand-binding domain of human TRb with a Texas Red labeled SRC2 peptide, corresponding to a 20 amino acid region of the nuclear receptor interaction domain (Arnold et al., 2006). Total fluorescence (555 nm excitation and 632 nm emission) was measured to identify potential fluorescent and light absorbing compounds. Such compounds may be artifacts that interfere with the fluorescence polarization assay.
Arnold, L. A.; Estebanez-Perpina, E.; Togashi, M.; Shelat, A.; Ocasio, C. A.; McReynolds, A. C.; Nguyen, P.; Baxter, J. D.; Fletterick, R. J.; Webb, P.; Guy, R. K. A high-throughput screening method to identify small molecule inhibitors of thyroid hormone receptor coactivator binding. Sci STKE 2006, p 13.
NCGC Assay Protocol Summary:
For screening, 5 uL/well 0.6 uM TRb and 20 nM SRC2 Texas Red in protein buffer (20mM Tris hydrochloride, 100mM NaCl, 10% glycerol, 1mM EDTA, 0.01% NP-40, 1mM DTT, 1uM T3 and 5% DMSO) was dispensed into black solid 1536-well plates (Grenier) using a solenoid-based dispenser. Following transfer of 23 nL compound or DMSO vehicle by a pin tool, the plates were centrifuged 15 s at 1000 RPM and incubated 5 hr at ambient temperature. The plates were read by an Envision (Perkin Elmer) to detect fluorescence polarization of SRC2 Texas Red (555 nm excitation and 632 nm emission). Data were normalized to unbound (all components except TRb) and bound SRC2 Texas Red controls. Total fluorescence (TF) was calculated as follows: TF = S + 2P where S and P are fluorescence readings in the parallel and perpendicular channels, respectively.
Keywords: NIH Roadmap, MLPCN, MLI, MLSMR, qHTS, NCGC, qHTS, thyroid hormone receptor, steroid receptor coactivator, fluorescence polarization
For `O[C@@H]1CO[C@H]2C1OC[C@@H]2O` (some centres not stated), the “fluorescence change, negative = quenching” value (“fluorescence change” below) is inactive: -2.25%.

Turning to `O=C(NCc1ccccc1)c1nc(-c2ccc(Cl)cc2)n2c1CCCCC2`, the Potency was active: 20 µM [quencher].

For the compound `COc1cccc(NC(=O)C(=O)NCC(c2cccnc2)N2CCN(c3ccccc3)CC2)c1` (configuration not stated), the Potency was active: 100 µM [quencher].

Turning to `COc1cc(/C=C2/C(C)=C(C#N)c3nc(N)c(C#N)c(C)c32)ccc1OCC(=O)O`, the “fluorescence change” value is inactive: 26.8%.

Consider `O=[N+]([O-])c1cccc2cn[nH]c12`, for which the Potency result was “inactive”.

As for `COC(=O)C(c1ccccc1Cl)N1CCc2sccc2C1` (configuration not stated), the Potency result was “inactive”.

As to `CC(=O)O[C@H]1C(=O)[C@@]2(C)[C@H]([C@H](OC(=O)c3ccccc3)[C@]3(O)C[C@H](OC(=O)[C@H](O)C(NC(=O)c4ccccc4)c4ccccc4)C(C)=C1C3(C)C)[C@]1(OC(C)=O)CO[C@@H]1C[C@@H]2O` (some centres not stated), the “fluorescence change” value is inactive: -0.582%.

As to `Cc1ccc(CSc2nc3c(c(=O)[nH]2)C(c2cccc(F)c2F)CC(=O)N3)cc1` (configuration not stated), the Potency is active: 8.91 µM [quencher].

As to `N[C@H](C(=O)O)c1cc(O)cc(O)c1`, the Potency result was “inactive”.

For `CCCCC1=CC2=CC(=O)C(C)(OC(=O)c3cnc4ccccc4n3)C(=O)C2=CO1` (configuration not stated), the “fluorescence change” value is inactive: -1.23%.

Regarding `S=C([S-])NCCNC(=S)[S-].[Mn+2]`, the Potency entry was “inactive”.

For the compound `CC1=C(C#N)C(NC(=O)c2cccc(Cl)c2)(C(F)(F)F)C(=O)N1` (configuration not stated), the “fluorescence change” value was inactive: -0.917%.

For `CCOCCOC(=O)c1ccc(NC(=O)/C=C/c2ccc(OC)c(OC)c2)cc1`, the Potency is active: 0.891 µM [quencher].

For `CSc1ccc(CCNC(=O)c2ccc(-n3c(C)cc4c3CCC(C)C4)cc2)cc1` (configuration not stated), the Potency was active: 22.4 µM [quencher].

As for `CC(=O)c1ccc(S(=O)(=O)NC(=O)NC2CCCCC2)cc1`, the Potency entry is “inactive”.

For the compound `CCOc1ccc(CCNC(=O)CSc2cc(=O)n(C)c3ccc(Cl)cc23)cc1OCC`, the “fluorescence change” value was inactive: 0.757%.

As to `O=C(Cn1ccnc1[N+](=O)[O-])NCCO`, the “fluorescence change” value was inactive: -1.1%.

With `CCN(CC)C(=O)C1=C(C)Nc2nc3ccccc3n2C1c1cccc(OC)c1` (configuration not stated), the “fluorescence change” value is inactive: -2.9%.

Turning to `CCc1ccc(CN(C(=O)Nc2cccc(Cl)c2)c2ccccn2)cc1`, the Potency was active: 355 µM [quencher].

Regarding `CC(C)NCC(O)COc1ccc(COCCOC(C)C)cc1` (configuration not stated), the Potency entry was “inactive”.

For the compound `Cc1ncc([N+](=O)[O-])n1CCO`, the Potency result is “inactive”.

With `CC(C)NC[C@@H](O)COc1ccc(COCCOC(C)C)cc1`, the “fluorescence change” value was inactive: 1.54%.

Turning to `Cc1cc(NC(=O)CSc2cc(Cl)ccc2Cl)n(-c2ccccc2)n1`, the Potency was active: 31.6 µM [quencher].

As for `Nc1nc(-c2c[nH]c3ccccc23)cs1`, the Potency is active: 35.5 µM [fluorescent].

In the case of `CC1(C)O[C@@H]1COc1c2ccoc2cc2oc(=O)ccc12`, the “fluorescence change” value is inactive: 0.0917%.

With `CC(=O)OC1C(=O)[C@@]2(C)C(O)CC3OC[C@]3(OC(C)=O)C2C(OC(=O)c2ccccc2)[C@]2(O)CC(OC(=O)C(O)C(NC(=O)c3ccccc3)c3ccccc3)C(C)=C1C2(C)C` (some centres not stated), the “fluorescence change” value was inactive: -1.25%.

With `CCOc1cc(CNc2ccc(N(C)C)cc2)cc(Br)c1OCC(=O)NC(C)(C)C`, the Potency is active: 44.7 µM [fluorescent].

With `CC1=C(\C=C/C(C)=C/C=C\C(C)=C\C(=O)O)C(C)(C)CCC1`, the Potency entry was “inactive”.

`O=C1SC(Nc2ccc(Cl)cc2)C(=O)N1Cc1ccccc1` (configuration not stated): the Potency is active: 0.0032 µM [quencher].

For the compound `COC1C=CO[C@@]2(C)Oc3c(C)c(O)c4c(O)c(c5c(nc6cc(C)ccn65)c4c3C2=O)NC(=O)/C(C)=C\C=CC(C)C(O)[C@@H](C)C(O)C(C)[C@@H](OC(C)=O)C1C` (some centres not stated), the “fluorescence change” value is inactive: -5.12%.

With `NS(=O)(=O)c1cc2c(cc1Cl)NCNS2(=O)=O`, the Potency entry was “inactive”.

Consider `Cc1ccc(C)c(CN2C(=O)c3ccccc3S(=O)(=O)c3ccc(C(=O)N4CCOCC4)cc32)c1`, for which the Potency is active: 2.82 µM [quencher].

With `O=C(CSc1ccc2ccccc2n1)Nc1nsc(-c2ccc(Cl)cc2)n1`, the “fluorescence change” value was inactive: 2.16%.

On to `NCC(O)c1ccc(O)c(O)c1` (configuration not stated), for which the “fluorescence change” value was inactive: 2.37%.

Take `CCCCCCCCCCCCC/C=C\[C@@H](O)[C@@H](N)CO`: the “fluorescence change” value is inactive: -0.0229%.

Consider `Cc1cc(C)n2c(Nc3ccc(Cl)cc3)c(-c3ccsc3)nc2n1`, for which the Potency is active: 1120 µM [quencher].

On to `O=C(NC(NC(=S)Nc1ccc(F)c([N+](=O)[O-])c1)C(Cl)(Cl)Cl)C(c1ccccc1)c1ccccc1` (configuration not stated), for which the “fluorescence change” value was inactive: 0.548%.

Take `CCN(CC)CCNC(=O)c1ccc(NC(C)=O)cc1`: the Potency entry is “inactive”.

With `Cc1ccc(-n2c3c(c(=O)[nH]c2=O)C(NS(=O)(=O)c2ccc(Cl)cc2)(C(F)(F)F)C(=O)N3)cc1` (configuration not stated), the “fluorescence change” value is inactive: -1.82%.

In the case of `O=C(O)[C@@H]1C[C@@H](C(=O)O)N1`, the Potency result is “inactive”.

`Cc1ccc(CN(Cc2ccco2)C(=O)COc2ccc(C(C)C)cc2)cc1`: the Potency is active: 0.0006 µM [quencher].

Turning to `CCOC(=O)Cc1cc(=O)n2[nH]c(C)c(-c3ccccc3)c2n1`, the Potency was active: 44.7 µM [fluorescent].

On to `Cn1c(CN2CCCCC2)nc2cc(NC(=O)c3ccc(Cl)cc3)ccc21`, for which the “fluorescence change” value was inactive: -4.12%.

Consider `Cc1c(C)c2c(c(C)c1O)CC[C@@](C)(CCC[C@@H](C)CCC[C@@H](C)CCCC(C)C)O2`, for which the “fluorescence change” value was inactive: -2.09%.

For the compound `Cc1ccc2[nH]c(=O)c3cc(C(=O)N(CCCOC(C)C)Cc4ccco4)sc3c2c1`, the “fluorescence change” value was inactive: -0.12%.

As to `CNC(=O)[C@H]1O[C@@H](n2cnc3c(N)ncnc32)[C@H](O)[C@@H]1O`, the “fluorescence change” value is inactive: -2.4%.

Consider `Clc1ccc2c(c1)C(N1CCNCC1)=Nc1ccccc1O2`, for which the Potency result is “inactive”.

Regarding `O=C(c1ccc(C(F)(F)F)cc1)N1CCC(=O)N(C(COCc2ccc(Cl)cc2)Cc2ccccc2)CC1` (configuration not stated), the “fluorescence change” value is inactive: -0.96%.

On to `CCc1ccc(NC(=O)COC(=O)CCCC2=NS(=O)(=O)c3ccccc3N2)cc1`, for which the “fluorescence change” value was inactive: -0.291%.

Consider `CC(=O)c1ccc(N2CCN(C(=O)Nc3ccc(C(C)C)cc3)CC2)cc1`, for which the “fluorescence change” value is inactive: -8.48%.

Take `COc1ccccc1N1CCN(C(=O)CNS(=O)(=O)c2ccc(Br)s2)CC1`: the Potency is active: 79.4 µM [quencher].

For `O=C(O)[C@H]1CN(CCCP(=O)(O)O)CCN1`, the Potency result was “inactive”.

In the case of `COc1cccc(NC(=O)OCCN2CCN(Cc3ccccc3)CCC2=O)c1`, the “fluorescence change” value is inactive: -0.975%.

Turning to `O=C(/C=C/c1ccc(O)c(O)c1)OC(Cc1ccc(O)c(O)c1)C(=O)O` (configuration not stated), the Potency entry is “inactive”.

As to `O=c1n(Cc2ccc([N+](=O)[O-])cc2)c2ccccc2c2nc(-c3ccccc3)nn12`, the Potency is active: 100 µM [quencher].

Regarding `COc1ccc(-c2cc(=O)c3ccccc3o2)cc1`, the “fluorescence change” value is inactive: 1.23%.

In the case of `Cc1cc(-c2ccc(N=Nc3ccc4c(S(=O)(=O)O)cc(S(=O)(=O)O)c(N)c4c3O)c(C)c2)ccc1N=Nc1ccc2c(S(=O)(=O)O)cc(S(=O)(=O)O)c(N)c2c1O`, the Potency was active: 17.8 µM [fluorescent].
